Measurements from PubChem BioAssay AID1347055 (National Center for Advancing Translational Sciences (NCATS), 2019).
About 120 (0.22%) of roughly 54,000 compounds were called active. The inconclusive results got no clear call from the source; some entries with a clear call stand among them for comparison. The call rests on the fitted dose curve; in most records, active means well fitted inhibition curve with a large enough effect; inconclusive means small, poorly fitted or top-dose-only effect, or effect the other way; inactive means flat fitted curve, though single readings scatter. Potencies of inconclusive entries are left out as doubtful fits.

target: Fumarate hydratase, mitochondrial (Homo sapiens) (UniProt P07954); assay: Identification of activators of human fumarate hydratase by quantitative high-throughput screening; settings: FH coupled MDH/diaphorase resazurin fluorescence, 15 min; activity change, negative = inhibition: at 79.9 µM (top of the series); further: the screen sought activators but most active calls are inhibition curves; nearly all actives have a fitted effect of over 45% in size
On the % scale 0 is the no-effect control and ±100 the full control effect; potency means the concentration at half of the fitted maximal effect; tags describe the fitted curve by direction and shape.

Sequence of UniProt P07954 (P07954 whole entry, looked up): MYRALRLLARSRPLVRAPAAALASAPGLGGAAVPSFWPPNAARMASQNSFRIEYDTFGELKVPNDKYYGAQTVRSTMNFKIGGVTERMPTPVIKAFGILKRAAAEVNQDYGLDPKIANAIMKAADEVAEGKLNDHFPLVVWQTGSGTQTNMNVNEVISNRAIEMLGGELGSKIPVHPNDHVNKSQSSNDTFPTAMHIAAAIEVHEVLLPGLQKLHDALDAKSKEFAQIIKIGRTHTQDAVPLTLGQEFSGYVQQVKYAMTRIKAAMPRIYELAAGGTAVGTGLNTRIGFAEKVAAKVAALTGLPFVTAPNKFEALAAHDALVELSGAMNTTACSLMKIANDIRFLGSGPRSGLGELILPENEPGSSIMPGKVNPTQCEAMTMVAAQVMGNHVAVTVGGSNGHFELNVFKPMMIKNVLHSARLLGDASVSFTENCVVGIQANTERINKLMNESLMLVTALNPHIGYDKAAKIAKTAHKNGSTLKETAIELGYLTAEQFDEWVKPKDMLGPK

SMILES | Potency | activity change, negative = inhibition
COc1ccc(NC(=O)CSc2nc(-c3ccc(F)cc3)[nH]c2-c2ccc(C)cc2)cc1OC | inconclusive [inhibitor, partial curve, poor fit] | –
COc1cc(OC)cc(C(=O)Nc2cc3c(cc2N2CCCC2)n(C)c(=O)c(=O)n3C)c1 | inconclusive [inhibitor, full curve, poor fit] | –
COc1cc(OC)cc(-c2cc3nc(C)c(CCC(=O)NCc4ccccc4)c(C)n3n2)c1 | inconclusive [inhibitor, partial curve, poor fit] | –
Cc1cc(F)ccc1S(=O)(=O)Nc1ccc2oc3c(c2c1)CC(C)CC3 (stereo unspecified) | inconclusive [inhibitor, single point] | –
COc1ccc(-c2noc(CSc3nnc(C)n3-c3ccc(C)cc3)n2)cc1OC | inactive | –
CC(=O)c1ccc(N2CCN(C(=O)C3CCN(S(=O)(=O)c4c(C)noc4/C=C/c4ccc(C)cc4)CC3)CC2)cc1 | inconclusive [inhibitor, partial curve] | –
COc1ccc(NC(=O)CSc2ccc3nc(-c4ccccc4)cn3n2)c(OC)c1 | inconclusive [inhibitor, partial curve, poor fit] | –
CCC1CN(C(=O)N2CCC(C(=O)NCc3cccc(OC)c3OC)CC2)c2cc(C)ccc2O1 (stereo unspecified) | inconclusive [inhibitor, partial curve, poor fit] | –
Cc1cccc(NC(=O)c2c(C)cc(C)nc2SCC(=O)c2ccccc2)c1 | inconclusive [inhibitor, partial curve, poor fit] | –
O=C(Nc1ccc(S(=O)(=O)N2CCCCC2c2cccnc2)cc1)c1ccc(Br)cc1 (stereo unspecified) | inconclusive [inhibitor, single point] | –
Cc1ccc(NC(=O)CN2CCN(S(=O)(=O)c3ccc(C(C)C)cc3)CC2)cc1F | inconclusive [inhibitor, partial curve] | –
CCCOc1ccc(CN(C(=O)Cc2coc3ccc(CC)cc23)C2CCS(=O)(=O)C2)cc1 (stereo unspecified) | inconclusive [inhibitor, partial curve, poor fit] | –
CC(=O)c1ccc(NS(=O)(=O)c2cccc(S(=O)(=O)c3ccc(Cl)cc3)c2)cc1 | inactive | –
COc1ccc(CC(=O)N2CCc3cc(OC)c(OC)cc3C2COc2cc(C)cc(C)c2)cc1OC (stereo unspecified) | inconclusive [inhibitor, partial curve, poor fit] | –
CCOC(=O)c1ccc(N2C(=O)c3n[nH]c(-c4ccco4)c3C2c2ccc(C)cc2)cc1 (stereo unspecified) | inconclusive [inhibitor, single point] | –
Cc1ccc(CCNC(=O)c2ccc3c(Cl)c4c(nc3c2)CCCC4)cc1 | – | inconclusive: -33.2% [inhibitor]
CCOc1ccccc1-c1noc(CSc2nnc(-c3ccccc3)n2-c2ccc(F)cc2)n1 | inconclusive [inhibitor, partial curve, poor fit] | –
COC(=O)c1c(NC(=O)c2nc(SCc3ccc(F)cc3)ncc2Cl)sc2c1CCCC2 | inactive | –

SMILES | Potency | activity change, negative = inhibition
CCCCSc1nnc2c(n1)OC(c1ccc(Br)s1)N(C(C)=O)c1ccccc1-2 (stereo unspecified) | inconclusive [inhibitor, partial curve, poor fit] | –
Cc1ccc(C(c2cccc(Br)c2)c2c(C)[nH]c3ccccc23)s1 (stereo unspecified) | inconclusive [inhibitor, partial curve, poor fit] | –
CN(C)c1ccc(/C=C/c2noc(-c3ccccc3O)n2)cc1 | inactive | –
CSc1ncc(Cl)c(C(=O)Nc2c(C(=O)Nc3cccc(Cl)c3)oc3ccccc23)n1 | inactive | –
COc1ccc(CNC(=O)CCCN2C(=O)COc3ccc(C)cc32)cc1 | inconclusive [inhibitor, partial curve, poor fit] | –
O=C(NCCc1ccccc1Cl)c1sc2ncccc2c1-n1cccc1 | inconclusive [inhibitor, partial curve, poor fit] | –
Cc1ccc(C2c3[nH]c4ccccc4c3CCN2C(=O)c2ccccc2Br)cc1 (stereo unspecified) | inconclusive [inhibitor, partial curve, poor fit] | –
Cc1ccc(NC(=O)CSc2nnc(-c3cc4occc4n3C)n2-c2ccccc2C)c(Cl)c1 | inconclusive [inhibitor, partial curve, poor fit] | –
COC(=O)c1ccccc1NC(=O)c1ccc(COc2cc(C)cc(C)c2)o1 | inconclusive [inhibitor, partial curve, poor fit] | –
COc1ccc(CCNC(=O)c2ccc3c(c2)N(Cc2cc(C)ccc2C)C(=O)c2ccccc2S3=O)cc1OC (stereo unspecified) | inconclusive [inhibitor, partial curve, poor fit] | –
Cc1ccc(S(=O)(=O)N2CCCc3cc(NS(=O)(=O)c4cc(F)ccc4F)ccc32)cc1 | inconclusive [inhibitor, single point] | –
CCOC(=O)c1ccc(N2C(=O)c3n[nH]c(-c4ccco4)c3C2c2ccc(OCC)cc2)cc1 (stereo unspecified) | inconclusive [inhibitor, partial curve] | –
CCOC(=O)N1CCc2c(sc(NCc3cccc(F)c3)c2C(=O)Nc2ccc(OC)cc2OC)C1 | inconclusive [inhibitor, partial curve, poor fit] | –
COc1ccccc1NC(=O)CCn1nc(-c2ccccc2OC)c2c(C)cc(C)nc21 | inconclusive [inhibitor, single point] | –
CCOC(=O)C1CCCN(C(=O)C2CCN(S(=O)(=O)c3c(C)noc3/C=C/c3ccccc3F)CC2)C1 (stereo unspecified) | inconclusive [activator, partial curve, poor fit] | –
COc1cc(N2CCC(N3CCN(C)CC3)CC2)ccc1Nc1ncc(Cl)c(Nc2ccccc2P(C)(C)=O)n1 | inconclusive [activator, single point] | –
COc1ccc(OC)c(NC(=O)c2c(NCc3sccc3C)sc3c2CCCCC3)c1 | inactive | –
COc1ccc(OC)c(NC(=O)c2cc3cc(C)ccc3n2C)c1 | inconclusive [inhibitor, partial curve, poor fit] | –
